Measured values: patent US20200291008A1 (GLAXOSMITHKLINE INTELLECTUAL PROPERTY DEVELOPMENT LIMITED, priority 2017, published 2020)

How the values were obtained:
[1] = test system: human peripheral blood mononuclear cells (PBMC); experiment: PBMC cytotoxicity assay (CellTiter-Glo); type: cell-based; settings: 48 h, human PBMC stimulated with IFN-γ and LPS, 2 days, read-out: PBMC TOX pIC50 (converted)
[2] = target: indoleamine 2, 3-dioxygenase (IDO1) (Homo sapiens, UniProt P14902); experiment: IDO1 PBMC RapidFire MS assay (kynurenine detection by mass spectrometry); type: cell-based; settings: human PBMC stimulated with IFN-γ and LPS, 2 days, read-out: PBMC pIC50 (converted)
Sequence of UniProt P14902 (P14902 whole entry): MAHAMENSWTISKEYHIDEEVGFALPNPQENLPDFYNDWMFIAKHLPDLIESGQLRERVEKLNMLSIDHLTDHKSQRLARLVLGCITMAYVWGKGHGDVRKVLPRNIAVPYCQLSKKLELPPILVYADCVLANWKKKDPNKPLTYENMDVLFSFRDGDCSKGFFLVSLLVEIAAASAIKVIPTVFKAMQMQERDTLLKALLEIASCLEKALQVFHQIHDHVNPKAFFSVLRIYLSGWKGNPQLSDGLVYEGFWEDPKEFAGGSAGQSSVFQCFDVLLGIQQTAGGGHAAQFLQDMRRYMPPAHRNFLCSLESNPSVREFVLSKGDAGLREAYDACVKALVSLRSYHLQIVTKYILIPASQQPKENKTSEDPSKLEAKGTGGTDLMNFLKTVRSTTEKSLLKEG
Protocol: Compounds of the present invention were tested via high-throughput cellular assays utilizing detection of kynurenine via mass spectrometry and cytotoxicity as end-points. […] Compounds with IDO1 inhibitory properties decreased the amount of kynurenine produced by the cells via the tryptophan catabolic pathway. Cellular toxicity due to the effect of compound treatment was measured using CellTiter-Glo® reagent (CTG) (Promega Corporation, Madison, Wis.), which is based on luminescent detection of ATP, an indicator of metabolically active cells.
In preparation for the assays, test compounds were serially diluted 3-fold in DMSO from a typical top concentration of 1mM or 5 mM and plated at 0.5 μL in 384-well, polystyrene, clear bottom, tissue culture treated plates with lids (Greiner Bio-One, Kremsmunster, Austria) to generate 11-point dose response curves. Low control wells (0% kynurenine or 100% cytotoxicity) contained either 0.5 μL of DMSO in the presence of unstimulated (-IFN-γ/-LPS) PBMCs for the mass spectrometry assay or 0.5 μL of DMSO in the absence of cells for the cytotoxicity assay, and high control wells (100% kynurenine or 0% cytotoxicity) contained 0.5 μL of DMSO in the presence of stimulated (+IFN-γ/+LPS) PBMCs for both the mass spectrometry and cytotoxicity assays.
Frozen stocks of PBMCs were washed and recovered in RPMI 1640 medium (Thermo Fisher Scientific, Inc., Waltham, Mass.) supplemented with 10% v/v heat-inactivated fetal bovine serum (FBS) (Thermo Fisher Scientific, Inc., Waltham, Mass.), and 1× penicillin-streptomycin antibiotic solution (Thermo Fisher Scientific, Inc., Waltham, Mass.). The cells were diluted to 1,000,000 cells/mL in the supplemented RPMI 1640 medium. 50 μL of either the cell suspension, for the mass spectrometry assay, or medium alone, for the cytotoxicity assay, were added to the low control wells, on the previously prepared 384-well compound plates, resulting in 50,000 cells/well or 0 cells/well respectively. IFN- y and LPS were added to the remaining cell suspension at final concentrations of 100 ng/ml and 50 ng/ml respectively, and 50 μL of the stimulated cells were added to all remaining wells on the 384-well compound plates. The plates, with lids, were then placed in a 37° C, 5% CO2 humidified incubator for 2 days.
Following incubation, the 384-well plates were removed from the incubator and allowed to equilibrate to room temperature for 30 minutes. For the cytotoxicity assay, CellTiter-Glo® was prepared according to the manufacturer's instructions, and 40 μL were added to each plate well. After a twenty minute incubation at room temperature, luminescence was read on an EnVision® Multilabel Reader (Perkin Elmer Inc., Waltham, Mass.). For the mass spectrometry assay, 10 μL of supernatant from each well of the compound-treated plates were added to 40 μL of acetonitrile, containing 10 μM of an internal standard for normalization, in 384-well, polypropylene, V-bottom plates (Greiner Bio-One, Kremsmunster, Austria) to extract the organic analytes. Following centrifugation at 2000 rpm for 10 minutes, 10 μL from each well of the acetonitrile extraction plates were added to 90 μL of sterile, distilled H2O in 384-well, polypropylene, V-bottom plates for analysis of kynurenine and the internal standard on the RapidFire 300 (Agilent Technologies, Santa Clara, Calif.) and 4000 QTRAP MS (SCIEX, Framingham, Mass.). MS data were integrated using Agilent Technologies' RapidFire Integrator software, and data were normalized for analysis as a ratio of kynurenine to the internal standard.

SMILES	IC50 [1]	IC50 [2]
CC(C)(C(=O)N[C@H]1CC[C@H](c2ccnc3ccccc32)CC1)c1ccccc1 [Example 43, 2-methyl-2-phenyl-N-(4-(quinolin-4-yl)cyclohexyl)propanamide]	> 10 µM	> 10 µM
O=C(NCc1ccccc1)[C@H]1CC[C@@H](c2ccnc3ccccc32)CC1 [Example 46]	> 10 µM	1.26 µM
